The record followed here is the supplement of paper PMC4604168 (melanoma cell lines).

The structures appear in SMILES notation. The list shows a part of the results. Most values come without repeats; read them as rough.

Assay in all cases: cell count relative to DMSO control; melanoma cells; higher = more viable cells
Settings in all cases: library dose: low library concentration; 72 h

Assay [1] relates to WM115.
Assay [2] has as its system WM1716.
Assay [3] deals with WM1745.
Assay [4] concerns WM3526.
For assay [5], the system named is WM3619.
Assay [6] relates to WM451Lu.
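Note: cell number obtained by counting DAPI-stained nuclei in high-throughput microscope images with image analysis software, screen run in 1,536-well plates.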

Take `C[C@]1(O)C[C@@H](c2nc(-c3ccc4ccc(-c5ccccc5)nc4c3)c3c(N)nccn32)C1` + CCCCCCCCCCCC1=C(O)C(=O)C=C(O)C1=O [Embelin] (first compound 0.4 µM, partner dose 1.2 µM): the cell count came out at 101% in assay [1]; 104% in assay [2]; 74.8% in assay [3]; 80.1% in assay [4]; 119% in assay [5]; 91.8% in assay [6].

For `Cn1cnc2c(F)c(Nc3ccc(Br)cc3Cl)c(C(=O)NOCCO)cc21` [selumetinib] + CCCCCCCCc1ccc(CCC(N)(CO)CO)cc1 [fingolimod] (first compound 0.015 µM, partner dose 2 µM), the cell count in assay [1] was 86.1%; in assay [2] it was 93.1%; in assay [3] it was 78.4%; in assay [4], 72.9%; in assay [5] it was 73.9%; in assay [6] it was 85.2%.

Regarding `C[C@]1(O)C[C@@H](c2nc(-c3ccc4ccc(-c5ccccc5)nc4c3)c3c(N)nccn32)C1` + CC(=O)c1c(C)c2cnc(Nc3ccc(N4CCNCC4)cn3)nc2n(C2CCCC2)c1=O [palbociclib] (first compound 0.4 µM, partner dose 0.04 µM), the cell count in assay [1] worked out at 86%; in assay [2], 84.2%; in assay [3], 80.9%; in assay [4] it was 71.2%; in assay [5] it was 85.8%; in assay [6], 92.1%.

Turning to `CCN(CC)CCNC(=O)c1c(C)[nH]c(/C=C2\C(=O)Nc3ccc(F)cc32)c1C` [sunitinib] + Oc1cc(-c2nc(-c3ccccc3)[nH]c2-c2ccncc2)ccc1Cl [L779450] (first compound 0.4 µM, partner dose 0.2 µM), the cell count in assay [1] was 71.2%; in assay [2], 131%; in assay [3], 69.4%; in assay [4], 46.1%; in assay [5] it was 129%; in assay [6] it was 79.9%.

As for `C[C@]1(O)C[C@@H](c2nc(-c3ccc4ccc(-c5ccccc5)nc4c3)c3c(N)nccn32)C1` + C[C@]1(c2nc3c(C(N)=O)cccc3[nH]2)CCCN1 [Veliparib] (first compound 0.4 µM, partner dose 1.4 µM), the cell count in assay [1] amounted to 111%; in assay [2] it was 100%; in assay [3], 81%; in assay [4], 97.1%; in assay [5] it was 82.2%; in assay [6], 102%.

Take `Cn1cnc2c(F)c(Nc3ccc(Br)cc3Cl)c(C(=O)NOCCO)cc21` [selumetinib] + Nc1ncn([C@H]2C[C@H](O)[C@@H](CO)O2)c(=O)n1 [decitabine] (first compound 0.015 µM, partner dose 0.1 µM): the cell count in assay [1] amounted to 89.4%; in assay [2], 94.9%; in assay [3] it was 88.1%; in assay [4], 77.3%; in assay [5] it was 80.9%; in assay [6] it was 90.5%.

Turning to `Cn1cnc2c(F)c(Nc3ccc(Br)cc3Cl)c(C(=O)NOCCO)cc21` [selumetinib] + CCCCCCCCCCCC1=C(O)C(=O)C=C(O)C1=O [Embelin] (first compound 0.015 µM, partner dose 1.2 µM), the cell count in assay [1] was 90.3%; in assay [2], 107%; in assay [3], 77.4%; in assay [4], 75.8%; in assay [5], 70.7%; in assay [6], 99.2%.

Consider `Cn1cnc2c(F)c(Nc3ccc(Br)cc3Cl)c(C(=O)NOCCO)cc21` [selumetinib] + CC(C)CCN1c2nc(Nc3cc(F)c(O)c(F)c3)ncc2N(C)C(=O)C1C [BID1870] (first compound 0.015 µM, partner dose 0.2 µM), for which the cell count in assay [1] is 79.3%; in assay [2], 91.1%; in assay [3], 81.5%; in assay [4], 89.9%; in assay [5], 66.3%; in assay [6], 93.9%.

For `COc1cc([C@@H]2c3cc4c(cc3[C@@H](O[C@@H]3O[C@@H]5CO[C@@H](C)O[C@H]5[C@H](O)[C@H]3O)[C@H]3COC(=O)[C@H]23)OCO4)cc(OC)c1O` [etoposide] + C=C(c1ccc(C(=O)O)cc1)c1cc2c(cc1C)C(C)(C)CCC2(C)C [Bexarotene] (first compound 0.02 µM, partner dose 2 µM), the cell count was 88.5% in assay [1]; 72.9% in assay [2]; 93.3% in assay [3]; 86.3% in assay [4]; 87.9% in assay [5]; 94.5% in assay [6].

For `C[C@]1(O)C[C@@H](c2nc(-c3ccc4ccc(-c5ccccc5)nc4c3)c3c(N)nccn32)C1` + COc1cc(N2CCC(N3CCN(C)CC3)CC2)ccc1Nc1ncc(Cl)c(Nc2ccccc2S(=O)(=O)C(C)C)n1 [NVP-TAE684] (first compound 0.4 µM, partner dose 0.08 µM), the cell count in assay [1] came out at 98.3%; in assay [2], 116%; in assay [3], 80.2%; in assay [4] it was 71.4%; in assay [5], 109%; in assay [6], 104%.

As for `CCN(CC)CCNC(=O)c1c(C)[nH]c(/C=C2\C(=O)Nc3ccc(F)cc32)c1C` [sunitinib] + CO[C@@H]1[C@H](N(C)C(=O)c2ccccc2)C[C@H]2O[C@]1(C)n1c3ccccc3c3c4c(c5c6ccccc6n2c5c31)C(=O)NC4 [Midostaurin] (first compound 0.4 µM, partner dose 0.08 µM), the cell count in assay [1] amounted to 91%; in assay [2], 99.3%; in assay [3] it was 44.1%; in assay [4], 92.9%; in assay [5] it was 89%; in assay [6], 99.8%.

Regarding `COc1cc([C@@H]2c3cc4c(cc3[C@@H](O[C@@H]3O[C@@H]5CO[C@@H](C)O[C@H]5[C@H](O)[C@H]3O)[C@H]3COC(=O)[C@H]23)OCO4)cc(OC)c1O` [etoposide] + OCc1c[nH]c2ccccc12 [Indole-3-carbinol] (first compound 0.02 µM, partner dose 0.8 µM), the cell count in assay [1] turned out to be 87.3%; in assay [2], 88%; in assay [3], 94.1%; in assay [4], 104%; in assay [5], 89.6%; in assay [6], 96%.

Consider `C[C@]1(O)C[C@@H](c2nc(-c3ccc4ccc(-c5ccccc5)nc4c3)c3c(N)nccn32)C1` + C#Cc1cccc(Nc2ncnc3cc(OCCOC)c(OCCOC)cc23)c1 [erlotinib] (first compound 0.4 µM, partner dose 0.8 µM), for which the cell count in assay [1] turned out to be 95.6%; in assay [2] it was 103%; in assay [3], 75%; in assay [4], 82.1%; in assay [5] it was 92.6%; in assay [6], 98.1%.

For `C[C@]1(O)C[C@@H](c2nc(-c3ccc4ccc(-c5ccccc5)nc4c3)c3c(N)nccn32)C1` + Cn1cncc1[C@@](N)(c1ccc(Cl)cc1)c1ccc2c(c1)c(-c1cccc(Cl)c1)cc(=O)n2C [tipifarnib] (first compound 0.4 µM, partner dose 0.01 µM), the cell count in assay [1] stood at 95.1%; in assay [2], 73.4%; in assay [3], 70.6%; in assay [4], 73.5%; in assay [5], 105%; in assay [6] it was 71.3%.

Regarding `C[C@]1(O)C[C@@H](c2nc(-c3ccc4ccc(-c5ccccc5)nc4c3)c3c(N)nccn32)C1` + Cc1cc(N2CCOCC2)cc2[nH]c(-c3c(NC[C@@H](O)c4cccc(Cl)c4)cc[nH]c3=O)nc12 [BMS536924] (first compound 0.4 µM, partner dose 0.2 µM), the cell count was 115% in assay [1]; 105% in assay [2]; 76.4% in assay [3]; 137% in assay [4]; 80.1% in assay [5]; 111% in assay [6].

Regarding `C[C@]1(O)C[C@@H](c2nc(-c3ccc4ccc(-c5ccccc5)nc4c3)c3c(N)nccn32)C1` + Oc1cc(-c2nc(-c3ccccc3)[nH]c2-c2ccncc2)ccc1Cl [L779450] (first compound 0.4 µM, partner dose 0.2 µM), the cell count came to 98.1% in assay [1]; 122% in assay [2]; 77.1% in assay [3]; 80.4% in assay [4]; 84.6% in assay [5]; 102% in assay [6].

Regarding `COc1cc([C@@H]2c3cc4c(cc3[C@@H](O[C@@H]3O[C@@H]5CO[C@@H](C)O[C@H]5[C@H](O)[C@H]3O)[C@H]3COC(=O)[C@H]23)OCO4)cc(OC)c1O` [etoposide] + C=CCn1c(=O)c2cnc(Nc3ccc(N4CCN(C)CC4)cc3)nc2n1-c1cccc(C(C)(C)O)n1 [MK1775] (first compound 0.02 µM, partner dose 0.02 µM), the cell count in assay [1] was found to be 84.4%; in assay [2] it was 70.1%; in assay [3], 83.9%; in assay [4] it was 85.1%; in assay [5], 71.2%; in assay [6], 124%.

Take `COc1cc([C@@H]2c3cc4c(cc3[C@@H](O[C@@H]3O[C@@H]5CO[C@@H](C)O[C@H]5[C@H](O)[C@H]3O)[C@H]3COC(=O)[C@H]23)OCO4)cc(OC)c1O` [etoposide] + CC(C)C[C@H](NC(=O)[C@H](Cc1ccccc1)NC(=O)c1cnccn1)B(O)O [Bortezomib] (first compound 0.02 µM, partner dose 0.001 µM): the cell count in assay [1] is 98.7%; in assay [2], 37.7%; in assay [3] it was 58.7%; in assay [4], 67.2%; in assay [5], 38.3%; in assay [6] it was 75%.

Consider `CCN(CC)CCNC(=O)c1c(C)[nH]c(/C=C2\C(=O)Nc3ccc(F)cc32)c1C` [sunitinib] + O=C(CCCCCCC(=O)Nc1ccccc1)NO [vorinostat] (first compound 0.4 µM, partner dose 0.08 µM), for which the cell count came to 98.5% in assay [1]; 140% in assay [2]; 84.1% in assay [3]; 76.4% in assay [4]; 126% in assay [5]; 116% in assay [6].

With `CCN(CC)CCNC(=O)c1c(C)[nH]c(/C=C2\C(=O)Nc3ccc(F)cc32)c1C` [sunitinib] + O=c1cc(-c2cccc3c2Sc2ccccc2S3)oc(N2CCOCC2)c1 [KU55933] (first compound 0.4 µM, partner dose 1 µM), the cell count in assay [1] came to 86.6%; in assay [2] it was 148%; in assay [3], 56%; in assay [4], 69.9%; in assay [5] it was 144%; in assay [6], 92.1%.

`Cn1cnc2c(F)c(Nc3ccc(Br)cc3Cl)c(C(=O)NOCCO)cc21` [selumetinib] + Cn1nnc2c(C(N)=O)ncn2c1=O [temozolomide] (first compound 0.015 µM, partner dose 2 µM): the cell count in assay [1] is 90%; in assay [2] it was 114%; in assay [3], 108%; in assay [4] it was 77.9%; in assay [5], 70.8%; in assay [6], 104%.

Regarding `CCN(CC)CCNC(=O)c1c(C)[nH]c(/C=C2\C(=O)Nc3ccc(F)cc32)c1C` [sunitinib] + C[C@@H]1CCN(C(=O)CC#N)C[C@@H]1N(C)c1ncnc2[nH]ccc12 [CP690550] (first compound 0.4 µM, partner dose 1 µM), the cell count is 111% in assay [1]; 131% in assay [2]; 90.8% in assay [3]; 103% in assay [4]; 113% in assay [5]; 125% in assay [6].

Consider `C[C@]1(O)C[C@@H](c2nc(-c3ccc4ccc(-c5ccccc5)nc4c3)c3c(N)nccn32)C1` + CN(C)S(=O)(=O)c1ccc2c(c1)/C(=C/c1cc3c([nH]1)CCCC3)C(=O)N2 [SU6656] (first compound 0.4 µM, partner dose 0.4 µM), for which the cell count in assay [1] worked out at 71.3%; in assay [2], 101%; in assay [3] it was 58.5%; in assay [4] it was 75.1%; in assay [5], 99.2%; in assay [6] it was 83.4%.
